{"source": "paper PMC6212790", "note": "The list shows a part of the results. At the low end of the ranking the order means little.", "data": [{"molecular_target": "T1, GST-Rok-C97-191 (UniProt O34857)", "T1 sequence": "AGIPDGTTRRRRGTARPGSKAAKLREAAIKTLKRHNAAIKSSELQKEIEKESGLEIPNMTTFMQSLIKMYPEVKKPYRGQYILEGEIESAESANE", "assay": "protein binding microarray;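 further: rank score from −0.5 (least bound) to 0.5 (best bound)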", "conditions": "Rok is a gene silencer of Bacillus subtilis; high values mean tight binding; most listed sequences are background and not binding sites; double strand, one strand shown", "units": {"binding signal": "E-score"}, "values": [{"sequence": "GATTCGAC", "binding signal": 0.0186}, {"sequence": "CAATTGCA", "binding signal": -0.126}, {"sequence": "CATGTGGC", "binding signal": -0.0798}, {"sequence": "GGAGGGCC", "binding signal": -0.396}, {"sequence": "TAGCGGCA", "binding signal": 0.187}, {"sequence": "AAGATGAT", "binding signal": -0.0553}, {"sequence": "AACGGCGC", "binding signal": -0.0687}, {"sequence": "ACGCACGT", "binding signal": -0.231}, {"sequence": "ACAATGTG", "binding signal": 0.275}, {"sequence": "CCTATCGC", "binding signal": -0.107}, {"sequence": "CACGAAGG", "binding signal": -0.127}, {"sequence": "ATTGTAGC", "binding signal": 0.172}, {"sequence": "CACAATCG", "binding signal": -0.043}, {"sequence": "AAGTCTCG", "binding signal": -0.0775}, {"sequence": "CAAATGGC", "binding signal": 0.0931}, {"sequence": "ACTTCTAC", "binding signal": 0.231}, {"sequence": "CCTGGTCG", "binding signal": -0.164}, {"sequence": "CATTTTAA", "binding signal": 0.032}, {"sequence": "CACTCACA", "binding signal": 0.0646}, {"sequence": "AAACTTAG", "binding signal": 0.128}, {"sequence": "ACCTAGTG", "binding signal": 0.0373}, {"sequence": "CCACTCCC", "binding signal": -0.152}, {"sequence": "AGACTAGC", "binding signal": 0.126}, {"sequence": "ATATAGTG", "binding signal": 0.253}, {"sequence": "AGGGTCGG", "binding signal": -0.361}, {"sequence": "GGTTAACA", "binding signal": 0.0323}, {"sequence": "AGCGTAAA", "binding signal": 0.0698}, {"sequence": "AAGGCCTT", "binding signal": -0.173}, {"sequence": "CGCTGTCC", "binding signal": -0.177}, {"sequence": "CCTGAGTA", "binding signal": -0.0503}, {"sequence": "ACGAAGCT", "binding signal": 0.0234}, {"sequence": "ACTGAAAA", "binding signal": 0.114}, {"sequence": "GAGTCGCC", "binding signal": -0.256}, {"sequence": "CTTGTTGC", "binding signal": 0.0629}, {"sequence": "CATTAGCA", "binding signal": -0.14}, {"sequence": "CGGTTCGC", "binding signal": -0.0901}, {"sequence": "ACTTGTTG", "binding signal": 0.0944}, {"sequence": "CCAATGCA", "binding signal": -0.0289}, {"sequence": "CCGTTGGA", "binding signal": -0.177}, {"sequence": "GATGCTCA", "binding signal": -0.118}, {"sequence": "CCCAGGGG", "binding signal": -0.203}, {"sequence": "CGACTCGC", "binding signal": -0.217}, {"sequence": "CGGGGGTC", "binding signal": -0.259}, {"sequence": "CCGGCGAC", "binding signal": -0.28}, {"sequence": "ATAGAGAT", "binding signal": 0.109}, {"sequence": "ACACATTC", "binding signal": -0.0305}, {"sequence": "ATCAGCAC", "binding signal": -0.0279}, {"sequence": "AACACTGC", "binding signal": 0.119}, {"sequence": "GCGGTAAA", "binding signal": 0.0639}, {"sequence": "CGCTCAGC", "binding signal": -0.162}, {"sequence": "ACTATGCC", "binding signal": -0.024}, {"sequence": "ATGGGGGC", "binding signal": -0.207}, {"sequence": "CTGTCAGC", "binding signal": -0.258}, {"sequence": "AATAGAAC", "binding signal": 0.151}, {"sequence": "ACGGTAGC", "binding signal": 0.0805}, {"sequence": "GTTTAAAA", "binding signal": -0.0408}, {"sequence": "CCCTCAGA", "binding signal": -0.192}, {"sequence": "ACCCCACA", "binding signal": -0.105}, {"sequence": "TAAATACA", "binding signal": 0.225}, {"sequence": "CCTCCGGC", "binding signal": -0.324}, {"sequence": "GCGGTGAC", "binding signal": -0.243}, {"sequence": "CAACGCGG", "binding signal": -0.206}, {"sequence": "ACTGCAAT", "binding signal": 0.0395}, {"sequence": "CCAGTCCG", "binding signal": -0.282}, {"sequence": "AAGCCGGT", "binding signal": -0.131}, {"sequence": "AGCAGACA", "binding signal": -0.0555}, {"sequence": "CCGCTAAG", "binding signal": -0.144}, {"sequence": "CTTACGCA", "binding signal": -0.0174}, {"sequence": "GAGTTGCC", "binding signal": -0.139}, {"sequence": "CACCTTCG", "binding signal": -0.23}, {"sequence": "CAAGAATA", "binding signal": 0.000184}, {"sequence": "TCGGCTAA", "binding signal": 0.101}, {"sequence": "CTCCCCGC", "binding signal": -0.241}, {"sequence": "ACTACCCA", "binding signal": 0.332}, {"sequence": "AGGAGGGG", "binding signal": -0.316}, {"sequence": "ATCGGCAT", "binding signal": 0.15}, {"sequence": "CTGCGTTC", "binding signal": -0.258}, {"sequence": "CATAATAC", "binding signal": 0.191}, {"sequence": "CCTGCCAC", "binding signal": -0.24}, {"sequence": "AGCACGCC", "binding signal": -0.0145}, {"sequence": "CGTCAACG", "binding signal": -0.152}, {"sequence": "CGAATTAA", "binding signal": 0.0451}, {"sequence": "CCCCGTTC", "binding signal": -0.0965}, {"sequence": "CTCCCAGC", "binding signal": -0.185}, {"sequence": "AATTTTCC", "binding signal": 0.259}, {"sequence": "ACGACCAA", "binding signal": 0.00408}, {"sequence": "CCCTTCAG", "binding signal": -0.144}, {"sequence": "ACGTGGCT", "binding signal": -0.0852}, {"sequence": "CAGATGCA", "binding signal": -0.219}, {"sequence": "AGATGGGA", "binding signal": 0.202}, {"sequence": "CTCGCACC", "binding signal": -0.0842}, {"sequence": "GGTAATGA", "binding signal": 0.129}, {"sequence": "ATAGCCCA", "binding signal": 0.0263}, {"sequence": "CAAAAATA", "binding signal": 0.0976}, {"sequence": "ACTAAGGG", "binding signal": -0.125}, {"sequence": "GCAAATGC", "binding signal": 0.127}, {"sequence": "GGAAGAGA", "binding signal": -0.124}, {"sequence": "GAAACCTC", "binding signal": -0.201}, {"sequence": "ATGCGGCC", "binding signal": -0.273}, {"sequence": "ACGGTGGG", "binding signal": -0.152}, {"sequence": "AATAGTCC", "binding signal": 0.151}, {"sequence": "GCAGTTGA", "binding signal": 0.0646}, {"sequence": "CCTAATGA", "binding signal": -0.186}, {"sequence": "AATGTGTA", "binding signal": 0.204}, {"sequence": "GGAGTTAA", "binding signal": -0.0411}, {"sequence": "CTGTATCA", "binding signal": 0.0261}, {"sequence": "CTACAGGA", "binding signal": -0.0131}, {"sequence": "ATAGACTA", "binding signal": 0.176}, {"sequence": "AAATTGCC", "binding signal": 0.0994}, {"sequence": "AACTTCGC", "binding signal": 0.206}, {"sequence": "AATGATTG", "binding signal": 0.00546}, {"sequence": "AACGCCTA", "binding signal": 0.12}, {"sequence": "ATCACGCA", "binding signal": 0.122}, {"sequence": "GAGAACAC", "binding signal": 0.197}, {"sequence": "CCTCGCGA", "binding signal": -0.26}, {"sequence": "CTTAATGA", "binding signal": -0.162}, {"sequence": "CATCTCGC", "binding signal": 0.00983}, {"sequence": "CCAGCGAG", "binding signal": -0.055}, {"sequence": "CTAATGGC", "binding signal": -0.0853}, {"sequence": "TAATTGTA", "binding signal": 0.326}, {"sequence": "ACACCCGA", "binding signal": 0.0729}, {"sequence": "ATACTGCC", "binding signal": -0.00169}, {"sequence": "TGTATACA", "binding signal": 0.37}, {"sequence": "AACGACAA", "binding signal": 0.114}, {"sequence": "GCCGAAGA", "binding signal": -0.0317}, {"sequence": "CGCCTTCC", "binding signal": -0.257}, {"sequence": "CTTTGGCA", "binding signal": -0.184}, {"sequence": "GCTGAAAA", "binding signal": -0.094}, {"sequence": "ATCCCGCA", "binding signal": -0.0982}, {"sequence": "CCAAACTA", "binding signal": 0.376}, {"sequence": "CTTTCCAC", "binding signal": 0.0598}, {"sequence": "GCGATCCA", "binding signal": -0.01}, {"sequence": "CCGTGTTA", "binding signal": 0.0658}, {"sequence": "AATACGTA", "binding signal": 0.287}, {"sequence": "ATAAGAAA", "binding signal": 0.157}, {"sequence": "CTCGTCAC", "binding signal": -0.0855}, {"sequence": "ATGAATAG", "binding signal": 0.0385}, {"sequence": "GTGAGAAC", "binding signal": 0.155}, {"sequence": "AGTATTTG", "binding signal": 0.194}, {"sequence": "GTCGAGAA", "binding signal": -0.0153}, {"sequence": "ATTCTCTG", "binding signal": -0.115}, {"sequence": "GACTTGAC", "binding signal": -0.254}, {"sequence": "CAAAGCTG", "binding signal": -0.0247}, {"sequence": "ATGCCTGC", "binding signal": -0.108}, {"sequence": "ATTAGGAA", "binding signal": -0.056}, {"sequence": "AGCAAAAA", "binding signal": -0.107}, {"sequence": "CGGCGGAA", "binding signal": -0.234}, {"sequence": "ACGCGAGC", "binding signal": 0.00341}, {"sequence": "ACCGCCAG", "binding signal": -0.217}, {"sequence": "GAAAAAGC", "binding signal": -0.183}, {"sequence": "ACGCGAAG", "binding signal": -0.103}, {"sequence": "AATGGTGC", "binding signal": -0.0745}, {"sequence": "ATCAACTC", "binding signal": 0.124}, {"sequence": "CTTCAAAC", "binding signal": -0.0291}, {"sequence": "AATGGATC", "binding signal": -0.216}, {"sequence": "ATAATACC", "binding signal": 0.197}, {"sequence": "CGCCTATA", "binding signal": 0.0489}, {"sequence": "AGCGTAAC", "binding signal": 0.0837}, {"sequence": "CCCAACAG", "binding signal": -0.0551}, {"sequence": "CCCGTAGA", "binding signal": -0.158}, {"sequence": "CGGCTTTC", "binding signal": -0.233}, {"sequence": "CCCTTTGC", "binding signal": -0.268}, {"sequence": "ACAACACA", "binding signal": -0.0665}, {"sequence": "TCGCCACA", "binding signal": -0.0452}, {"sequence": "CCCAATAA", "binding signal": -0.0896}, {"sequence": "GCCGCGAC", "binding signal": -0.359}, {"sequence": "CGTATCGA", "binding signal": -0.0144}, {"sequence": "AGGAAAGA", "binding signal": -0.128}, {"sequence": "GAGCGGGA", "binding signal": -0.246}, {"sequence": "AAGGGAGG", "binding signal": -0.192}, {"sequence": "ACGTGCTC", "binding signal": -0.238}, {"sequence": "GGGGGGGA", "binding signal": -0.333}]}]}
